# Measurements taken from PMC4336329 (PLoS ONE, 2015).
# Among all 310,000 compounds or so, about 2,200 (0.71%) showed an effect of 50% or more. The effect is printed as a negative number. The list shows a part of the results.
# Target: human ether-à-go-go-related gene (hERG) potassium channel (human, UniProt Q12809)
# Assay: primary screen, population patch clamp on CHO cells stably expressing hERG
# Chain of human ether-à-go-go-related gene (hERG) potassium channel (Q12809 whole entry, looked up): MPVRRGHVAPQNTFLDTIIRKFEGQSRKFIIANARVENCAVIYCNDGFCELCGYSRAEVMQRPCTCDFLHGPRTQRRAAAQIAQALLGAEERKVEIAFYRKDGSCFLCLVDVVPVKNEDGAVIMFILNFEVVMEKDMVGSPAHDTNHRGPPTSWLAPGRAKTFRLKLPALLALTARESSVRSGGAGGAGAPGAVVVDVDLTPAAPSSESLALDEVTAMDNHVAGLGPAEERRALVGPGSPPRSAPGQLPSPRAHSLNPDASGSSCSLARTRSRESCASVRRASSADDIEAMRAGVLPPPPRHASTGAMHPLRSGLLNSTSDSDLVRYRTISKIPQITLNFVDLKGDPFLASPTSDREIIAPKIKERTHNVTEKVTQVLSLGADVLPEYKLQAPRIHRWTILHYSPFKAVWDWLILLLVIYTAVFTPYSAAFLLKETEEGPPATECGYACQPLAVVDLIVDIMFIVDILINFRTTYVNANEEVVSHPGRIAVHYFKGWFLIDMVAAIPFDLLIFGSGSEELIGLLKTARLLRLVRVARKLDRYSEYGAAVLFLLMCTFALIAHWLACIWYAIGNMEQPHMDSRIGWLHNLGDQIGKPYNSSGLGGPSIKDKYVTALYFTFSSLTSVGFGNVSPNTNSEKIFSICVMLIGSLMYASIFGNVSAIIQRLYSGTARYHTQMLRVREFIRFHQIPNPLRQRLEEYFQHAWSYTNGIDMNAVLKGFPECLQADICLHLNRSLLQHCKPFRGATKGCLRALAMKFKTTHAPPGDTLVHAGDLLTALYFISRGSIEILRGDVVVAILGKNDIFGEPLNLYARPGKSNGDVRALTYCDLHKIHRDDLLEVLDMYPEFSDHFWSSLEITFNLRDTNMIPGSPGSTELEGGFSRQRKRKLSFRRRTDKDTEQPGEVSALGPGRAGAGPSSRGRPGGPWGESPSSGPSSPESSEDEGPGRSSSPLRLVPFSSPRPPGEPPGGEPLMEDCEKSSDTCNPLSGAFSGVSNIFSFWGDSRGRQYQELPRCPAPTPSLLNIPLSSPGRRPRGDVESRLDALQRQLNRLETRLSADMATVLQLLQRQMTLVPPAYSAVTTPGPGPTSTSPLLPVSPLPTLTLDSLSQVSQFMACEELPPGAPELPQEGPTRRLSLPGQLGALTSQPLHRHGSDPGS
row,SMILES,"hERG current change (%, negative = inhibition) at 1uM [%]"
1,O=c1[nH]c(CSc2nnc(NCCCN3CCOCC3)s2)nc2cc(Cl)ccc12,4.13
2,Cc1cccc(N2C(N)=C(C#N)C(C#N)(C#N)C2c2ccccc2)c1 (stereo not shown),4.47
3,CCCCOc1ccc(C(=O)NCC2(c3ccccc3)CCOCC2)cc1,-12
4,Cc1cc(/C=C2\SC(N)=NC2=O)c(C)n1-c1ccc(F)cc1,13.2
5,CCCCN(C)C(=O)c1nc2ccccn2c1CN1CCN(c2cnccn2)CC1,7.66
6,COc1ccc(C)cc1S(=O)(=O)N1CCC(C(=O)NCCc2ccccc2)CC1,10.9
7,COc1ccc(CC(=O)Nc2ccccc2Oc2ccccc2)cc1,10.7
8,COc1ccc(C(=O)CSc2nnc(CNC(=O)c3ccc(S(=O)(=O)N(C)C)cc3)o2)cc1,7.41
9,CCNc1nc(OCC)nc(N2CCC(Cc3ccccc3)CC2)n1,9.21
10,COc1ccc(CNC(=O)CSc2nnnn2C)cc1OC,13.5
11,COc1ccccc1N1CCN(S(=O)(=O)c2ccc(-n3cnnn3)cc2)CC1,-17.5
12,Cc1ccc2[nH]c(=O)c(CN(CCCN3CCOCC3)C(=O)Nc3ccc(Cl)cc3)cc2c1,-13.8
13,COc1ccc(NC(=O)CSc2nc(=O)n(CCN3CCOCC3)c3c2CCCC3)c(OC)c1,-5.23
14,CC(C)=CCN1CCN(Cc2c[nH]c3ccccc23)CC1CCO (stereo not shown),12
15,Fc1ccc(/C=N/Nc2nccnc2Cl)cc1,13
16,CC1=C(C(=O)OCCOc2ccccc2)C(c2ccc(C)o2)C2=C(CC(C)(C)CC2=O)N1 (stereo not shown),0.634
17,Cc1ccc(-c2nc3ccccc3s2)cc1NC(=S)NC(=O)/C=C/c1ccco1,-0.204
18,COc1ccc(-c2cc(C(=O)N3CC4(C)CC3CC(C)(C)C4)no2)cc1OC (stereo not shown),-2.32
19,CCOc1ccc(NC(=O)CC(=O)Nc2ccc(OCC)cc2)cc1,12.4
20,COc1ccccc1-c1coc2c(CN(C)C)c(O)ccc2c1=O,14.7
21,CC(C)S(=O)(=O)c1cnc(N2CCOCC2)nc1N,13.9
22,Cc1ccc(-n2c(/C=C/c3ccc4c(c3)OCO4)nc3ccccc3c2=O)cc1,0.589

row,SMILES,"hERG current change (%, negative = inhibition) at 1uM [%]"
1,COc1ccc(C(=O)C2CCCN(C(=O)c3cc(C)on3)C2)cc1F (stereo not shown),0.713
2,Cc1cccc(SCC(=O)Nc2ccc3c(c2)OCCO3)c1,-3.88
3,COC(=O)c1cn(CCOc2ccccc2F)c2ccccc12,-2.35
4,CCOc1ccc(-c2cn3ccccc3n2)cc1,-1.48
5,Cc1ccc(NC(=O)c2cccs2)cc1,-0.304
6,COc1ccc([C@H]2CC(=O)C=C(c3ccc(Oc4ccccc4)cc3)C2)cc1OC,9.03
7,Fc1ccccc1/C=N/n1c(-c2cccnc2)n[nH]c1=S,12.9
8,Cl.O=C(CN1CCN(Cc2ccccc2)CC1)N1CCCc2ccccc21.O=C(O)C(=O)O,12.8
9,CCC(Sc1nc(-c2ccccc2)c(-c2ccccc2)[nH]1)C(=O)O (stereo not shown),52.5
10,CC1CCCC(NC(=O)Cn2cc(C(F)(F)F)cc(Cl)c2=O)C1C (stereo not shown),9.61
11,c1ccc(Oc2c3ccccc3nc3ccccc23)cc1,16.4
12,Cc1cc(C)c(C#N)c(Oc2ccc(F)cc2)n1,-2.01
13,Cc1ccc(NC(=O)c2ccc3snnc3c2)cc1C,0.389
14,O=C(CCS(=O)(=O)c1ccc(Cl)cc1)Nc1nnc(-c2cccs2)o1,5.33
15,COc1cccc(CC2(CO)CCN(Cc3cnc(N4CCOCC4)s3)CC2)c1,-6.59
16,CCN(c1ccccc1)S(=O)(=O)c1ccc(OC)c(N=N/C(C(=O)Nc2ccccc2)=C(/C)O)c1,1.23
17,Cc1cccc([C@@H]2[C@@H]3C(=O)N(Cc4ccccc4)C(=O)[C@@H]3[C@]3(Cc4ccc(Cl)cc4)C(=O)N(c4ccccc4)C(=O)N23)c1,-4.04
18,CC(=O)Nc1ccc(NS(=O)(=O)c2ccccc2)cc1,13.5
19,O=C(CSc1nnc(NCc2ccccc2)s1)c1ccco1,-12.9
20,CCOC(=O)C1CCCN(C(=O)c2cc3nc(-c4cccc(OC)c4)cc(C(F)(F)F)n3n2)C1 (stereo not shown),-7.07
21,Cc1cccc(-c2nnc(SCC(=O)c3ccc(O)cc3O)n2C)c1,10.4
